The supplement of paper PMC3724861
The other results are listed elsewhere or left out.

These sequences were tested on T1, Caupolican (Caup) homeodomain DNA-binding domain (assay: PBM E-score (8-mer, recovered from the published 9-mer minima) (E-score (dimensionless, -0.5 to 0.5)); Drosophila protein; higher = stronger relative binding preference, active = 0.31 or more).
T1 sequence: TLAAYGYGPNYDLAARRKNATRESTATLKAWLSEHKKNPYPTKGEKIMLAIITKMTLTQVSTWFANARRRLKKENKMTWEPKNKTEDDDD
Description: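 Protein binding microarray (PBM): in vitro transcribed/translated Caupolican (Caup) homeodomain DNA-binding domain (residues 214-303) applied at 100 nM to a universal 8-mer PBM array (Agilent AMADID 015681). The 8-mer enrichment score (E-score, range -0.5 to 0.5) was computed, and each 9-mer score is the minimum E-score of its two constituent 8-mers. The E-score is the same for a 9-mer and its reverse complement; 0.31 is the stated binding threshold.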

| Sequence | PBM E-score |
| --- | --- |
| GACCATAA | inactive: -0.00449 |
| CGCGTACA | inactive: 0.168 |
| AGTGCGTC | inactive: -0.109 |
| CGGTCGGA | inactive: -0.0659 |
| ACAATATC | inactive: 0.198 |
| CTATGGTA | inactive: 0.0305 |
| AACCACGC | inactive: 0.0198 |
| ACAGTTAC | inactive: 0.224 |
| ATGCGTGA | inactive: 0.0972 |
| ATGCTGTC | inactive: 0.17 |
| AACCAAGC | inactive: -0.0326 |
| CCGCCGGA | inactive: -0.175 |
| GCTCACGA | inactive: -0.108 |
| GATTGTCC | inactive: 0.114 |
| AAACCATT | inactive: 0.0332 |
| GTAATGAA | inactive: 0.127 |
| CATTACTC | inactive: 0.131 |
| AGGAGCAG | inactive: -0.216 |
| ACCATGTA | active: ≥ 0.422 |
| ATTCCGTA | inactive: 0.0304 |
| ATCACCGG | inactive: -0.0415 |
| ATTTGGTG | inactive: 0.121 |
| CTCGCCAA | inactive: -0.134 |

| Sequence | PBM E-score |
| --- | --- |
| GCTTAAAC | inactive: 0.0137 |
| CCGCATAG | inactive: -0.0554 |
| GAGAACGC | inactive: -0.0756 |
| CCTGAGTC | inactive: -0.149 |
| ATGTGCCC | inactive: 0.0731 |
| ACACATGG | inactive: 0.167 |
| CCCCCTCC | inactive: -0.387 |
| CTAAGGAA | inactive: 0.00378 |
| GTGAGGCA | inactive: -0.0692 |
| CGCGTGCC | inactive: -0.227 |
| CAGAAGAC | inactive: 0.0298 |
| AGGTCCAG | ≥ 0.0427 |
| TAGCCCCA | inactive: -0.192 |
| ACCATATG | inactive: 0.145 |
| CTGCTCGA | inactive: -0.131 |
| AAACTCGA | inactive: 0.0205 |
| GCGTTTAC | inactive: -0.0438 |
| CGCCGTAA | inactive: -0.0926 |
| CTTTGCTA | inactive: -0.00094 |
| GGAGAAGA | inactive: -0.179 |
| AAGTCCCT | inactive: -0.132 |
| AAGGCCTT | ≥ -0.109 |
| CTTGTTAC | active: 0.365 |

| Sequence | PBM E-score |
| --- | --- |
| ATGGTTAA | inactive: 0.0478 |
| GCATCCAA | inactive: -0.0399 |
| ATGCGACC | inactive: -0.0826 |
| CGACTACC | inactive: -0.0888 |
| ATTGGAGG | inactive: -0.0827 |
| CCGTCTCA | inactive: -0.104 |
| GCGCGTCA | inactive: -0.105 |
| ACTAGCTC | inactive: 0.0549 |
| CATGAAGG | inactive: 0.0126 |
| AATTTATA | inactive: 0.192 |
| AGCAAGTG | inactive: 0.0491 |
| CATTCGGG | inactive: -0.00581 |
| CAATACGG | inactive: -0.0365 |
| CCGTCGCA | inactive: -0.118 |
| GCGTGGTA | inactive: -0.00155 |
| ACGAGGAA | ≥ 0.0777 |
| ACGCGACT | inactive: 0.0019 |
| GAATAAAC | inactive: 0.174 |
| AGCGTCCC | inactive: -0.13 |
| ATGCCAAT | inactive: 0.055 |
| GTAGGGGA | inactive: -0.0766 |
| ATCACCTC | inactive: 0.0348 |
| ATCGATAG | inactive: 0.148 |

| Sequence | PBM E-score |
| --- | --- |
| GTTTACCA | inactive: 0.063 |
| CATCTTAG | inactive: 0.0142 |
| ACGCGACA | inactive: 0.139 |
| GCACTTTA | inactive: 0.085 |
| ATCTCGGG | inactive: -0.119 |
| GCAGACCA | inactive: -0.114 |
| ACTCCTGC | inactive: -0.0374 |
| AAGCAGAG | inactive: -0.0305 |
| GCCGGTCC | inactive: -0.258 |
| GCAGAGAA | inactive: -0.117 |
| AATGGAAA | inactive: 0.045 |
| CCGGGGAA | inactive: -0.227 |
| CGCGAGCC | inactive: -0.254 |
| CGGCTCAC | inactive: -0.135 |
| GTCTCAAC | inactive: -0.00687 |
| AGTCCGAT | inactive: 0.001 |
| AATCACAA | inactive: 0.19 |
| AAGGGCAT | inactive: -0.0465 |
| ATTGAGAG | inactive: -0.0513 |
| AAAGGATA | inactive: 0.105 |
| AGCGGTAC | inactive: 0.0546 |
| GATTATAA | inactive: 0.0984 |
| ACTGGTCA | inactive: 0.014 |

| Sequence | PBM E-score |
| --- | --- |
| CAGGCTTC | inactive: -0.123 |
| AATTAGTC | inactive: 0.151 |
| AATCCCCT | inactive: -0.155 |
| GCCCAACA | inactive: 0.0223 |
| CAGTACAG | inactive: 0.195 |
| CCGGACTC | inactive: -0.141 |
| AGCTGATG | inactive: 0.0305 |
| CCGAAGCC | inactive: -0.272 |
| CAGTGCGA | inactive: -0.045 |
| ACGTCCCC | inactive: -0.13 |
| AGTGTGAC | inactive: 0.115 |
| GGCGCGGA | inactive: -0.281 |
| ATAGTCGG | inactive: -0.0656 |
| CAGTAGGG | inactive: -0.081 |
| ACAGTAGA | inactive: 0.0979 |
| AGGGTACG | inactive: -0.00711 |
| ATCCTAGA | inactive: -0.0887 |
| AATTGTTC | inactive: 0.211 |
| TAGTCTAA | inactive: 0.0123 |
| CCGAGCGC | inactive: -0.209 |
